Where a name gives a salt, the structure may show the parent alone. ± gives the standard deviation of the averaged measurements. Whole data set: some 1,300 compounds, median “normalised cell viability” near 1, cut for the lowest 2% near 0.14. This is one part of the list.

The subject of this experiment is V-C8 (BRCA2-deficient hamster cells). Put plainly: normalised cell viability (fraction of plate median); higher = more viable cells (less toxic). The conditions noted are these: 5 µM. The gist of the method: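 BRCA2-deficient hamster V-C8 cells and BRCA2-restored V-C8 cells were plated in 96-well plates, and library drugs were added 24 h later at 5 μM in 100 μl medium. Exposure lasted 3 days in screen 1 and 6 days in screen 2, next to solvent-only wells. Viability was then read by resazurin assay, median-plate normalised and averaged across triplicate wells.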

`C[C@H]1[C@H](NC(=O)/C(=N\OC(C)(C)C(=O)O)c2csc(N)n2)C(=O)N1S(=O)(=O)O` [Aztreonam] displayed a normalised cell viability (treatment time: 3 days) of 0.984 ± 0.057 and a normalised cell viability (treatment time: 6 days) of 1.02 ± 0.012.

For `Cc1c(Cl)cccc1Nc1ncccc1C(=O)O` [Clonixin Lysinate], the normalised cell viability is, setting by setting: (treatment time: 3 days) 1.03 ± 0.052; (treatment time: 6 days) 0.997 ± 0.057.

Regarding `Cc1ccc(/C(=C\CN2CCCC2)c2ccccn2)cc1` [Triprolidine hydrochloride], the normalised cell viability was found to be 1.14 ± 0.029 (treatment time: 3 days) and 1.07 ± 0.044 (treatment time: 6 days).

For `CC(C)(O/N=C(\C(=O)N[C@@H]1C(=O)N2C(C(=O)[O-])=C(C[n+]3ccccc3)CS[C@H]12)c1csc(N)n1)C(=O)O` [Ceftazidime pentahydrate], the normalised cell viability (treatment time: 3 days) is 0.989 ± 0.013 and the normalised cell viability (treatment time: 6 days) is 1.05 ± 0.023.

Take `O=C1C=CC(=O)c2c1ccc1c2ccc2ccccc21` [Chrysene-1,4-quinone]: the normalised cell viability stood at 1.02 ± 0.061 (treatment time: 3 days) and 1.06 ± 0.12 (treatment time: 6 days).

Take `CN1CCN(C(c2ccccc2)c2ccc(Cl)cc2)CC1` (stereo not given) [Chlorcyclizine hydrochloride]: the normalised cell viability reads like this: (treatment time: 3 days) 0.947 ± 0.019; (treatment time: 6 days) 0.979 ± 0.073.

In turn, `O=C(N/N=C/c1ccc([N+](=O)[O-])o1)c1ccc(O)cc1` [Nifuroxazide] gave a normalised cell viability (treatment time: 3 days) of 0.41 ± 0.027 and a normalised cell viability (treatment time: 6 days) of 0.451 ± 0.024.

For `CN(N=O)C(=O)N[C@@H](C=O)[C@@H](O)[C@H](O)[C@H](O)CO` [Streptozotocin], the normalised cell viability runs as follows: (treatment time: 3 days) 1.1 ± 0.021; (treatment time: 6 days) 1.09 ± 0.042.

Turning to `CCC(=O)[C@@]1(C)[C@H](C)C[C@H]2[C@@H]3CCC4=CC(=O)C=C[C@]4(C)[C@H]3[C@@H](O)C[C@@]21C` [Rimexolone], the normalised cell viability reads like this: (treatment time: 3 days) 1.06 ± 0.05; (treatment time: 6 days) 0.935 ± 0.069.

For `CC(=O)Nc1c(I)c(NC(C)=O)c(I)c(C(=O)O)c1I` [Diatrizoic acid dihydrate], the normalised cell viability reads like this: (treatment time: 3 days) 1.03 ± 0.029; (treatment time: 6 days) 0.989 ± 0.061.

Consider `CCc1cc(C(N)=S)ccn1` [Ethionamide], for which the normalised cell viability is, setting by setting: (treatment time: 3 days) 1.09 ± 0.029; (treatment time: 6 days) 1.03 ± 0.03.

Take `CC(C)N1CCN(c2ccc(OCC3COC(Cn4cncn4)(c4ccc(Cl)cc4Cl)O3)cc2)CC1` (stereo not given) [Terconazole]: the normalised cell viability is 1.09 ± 0.049 (treatment time: 3 days) and 1.08 ± 0.056 (treatment time: 6 days).

Turning to `CN1C2CCCC1CC(NC(=O)c1nn(C)c3ccccc13)C2` (stereo not given) [Granisetron], the normalised cell viability is, setting by setting: (treatment time: 3 days) 0.973 ± 0.092; (treatment time: 6 days) 1.03 ± 0.051.

Turning to `Cc1ncc([N+](=O)[O-])n1CCO` [Metronidazole], the normalised cell viability is, setting by setting: (treatment time: 3 days) 0.914 ± 0.088; (treatment time: 6 days) 1.04 ± 0.058.

As for `CCN(CC)CC#CCOC(=O)C(O)(c1ccccc1)C1CCCCC1` (stereo not given) [Oxybutynin chloride], the normalised cell viability came out at 1.02 ± 0.018 (treatment time: 3 days) and 1.03 ± 0.059 (treatment time: 6 days).

As for `OC(CCN1CCCCC1)(c1ccccc1)C1CC2C=CC1C2` (stereo not given) [Biperiden hydrochloride], the normalised cell viability worked out at 1.02 ± 0.029 (treatment time: 3 days) and 0.999 ± 0.014 (treatment time: 6 days).

Regarding `O=C(NCCNCC(O)COc1ccc(O)cc1)N1CCOCC1` (stereo not given) [Xamoterol hemifumarate], the normalised cell viability (treatment time: 3 days) amounted to 1.03 ± 0.056 and the normalised cell viability (treatment time: 6 days) amounted to 0.991 ± 0.037.

Take `CN(C)CCOC1=Cc2ccccc2Sc2ccc(Cl)cc21` [Zotepine]: the normalised cell viability amounted to 0.449 ± 0.066 (treatment time: 3 days) and 0.616 ± 0.076 (treatment time: 6 days).

Consider `CCN(Cc1ccncc1)C(=O)C(CO)c1ccccc1` (stereo not given) [Tropicamide], for which the normalised cell viability by setting is: (treatment time: 3 days) 1 ± 0.028; (treatment time: 6 days) 0.995 ± 0.087.

`COc1ccc(C(=O)NCc2cccnc2)cc1C(=O)NCc1cccnc1` [Picotamide monohydrate]: the normalised cell viability is, setting by setting: (treatment time: 3 days) 1.09 ± 0.07; (treatment time: 6 days) 1.04 ± 0.054.

On to `NC[C@H]1O[C@H](O[C@H]2[C@H](O[C@@H]3O[C@H](CO)[C@@H](O)[C@H]3O)[C@@H](O)[C@H](N)C[C@@H]2N)[C@H](N)[C@@H](O)[C@@H]1O` [Ribostamycin sulfate salt], for which the normalised cell viability worked out at 1.08 ± 0.018 (treatment time: 3 days) and 0.981 ± 0.069 (treatment time: 6 days).

Turning to `Cc1ccc(C(=O)c2cc(O)c(O)c([N+](=O)[O-])c2)cc1` [Tolcapone], the normalised cell viability is, setting by setting: (treatment time: 3 days) 0.967 ± 0.036; (treatment time: 6 days) 1.08 ± 0.036.

`COc1ccc2[nH]cc(CCNC(C)=O)c2c1` [Melatonin] returned a normalised cell viability (treatment time: 3 days) of 1.16 ± 0.068 and a normalised cell viability (treatment time: 6 days) of 1 ± 0.058.

Regarding `COc1nc(C)nc(Cl)c1NC1=NCCN1` [Moxonidine], the normalised cell viability is 1.02 ± 0.027 (treatment time: 3 days) and 0.852 ± 0.089 (treatment time: 6 days).

Turning to `COc1cc2nc(N3CCN(C(=O)c4ccco4)CC3)nc(N)c2cc1OC` [Prazosin hydrochloride], the normalised cell viability is, setting by setting: (treatment time: 3 days) 1.05 ± 0.048; (treatment time: 6 days) 1.01 ± 0.026.

In the case of `CCn1cc(C(=O)O)c(=O)c2cnc(N3CCNCC3)nc21` [Pipemidic acid], the normalised cell viability stood at 1.09 ± 0.041 (treatment time: 3 days) and 1.04 ± 0.047 (treatment time: 6 days).

In the case of `Cc1ccc(S(=O)(=O)NC(=O)NN2CC3CCCC3C2)cc1` (stereo not given) [Gliclazide], the normalised cell viability is 1.04 ± 0.049 (treatment time: 3 days) and 0.979 ± 0.091 (treatment time: 6 days).

Regarding `CC(=O)N[C@@H](CC(=O)N[C@@H](CCC(=O)O)C(=O)O)C(=O)O` [Spaglumic acid], the normalised cell viability was found to be 1.08 ± 0.02 (treatment time: 3 days) and 1.01 ± 0.044 (treatment time: 6 days).

For `COc1ccc2cc(CCC(C)=O)ccc2c1` [Nabumetone], the normalised cell viability came out at 1.04 ± 0.042 (treatment time: 3 days) and 0.995 ± 0.013 (treatment time: 6 days).

As to `CCn1cc(C(=O)O)c(=O)c2ccc(C)nc21` [Nalidixic acid sodium salt], the normalised cell viability is, setting by setting: (treatment time: 3 days) 1.06 ± 0.018; (treatment time: 6 days) 1.02 ± 0.025.

In turn, `C#CCN(C)Cc1ccccc1` [Pargyline hydrochloride] returned a normalised cell viability (treatment time: 3 days) of 0.974 ± 0.053 and a normalised cell viability (treatment time: 6 days) of 1.02 ± 0.052.

`CCN(CC)CCNC(=O)c1cc(S(C)(=O)=O)ccc1OC` [Tiapride hydrochloride]: the normalised cell viability reads like this: (treatment time: 3 days) 1.02 ± 0.063; (treatment time: 6 days) 0.933 ± 0.035.

Molecule `O=C(CCCN1CC=C(n2c(=O)[nH]c3ccccc32)CC1)c1ccc(F)cc1` [Droperidol] came in with a normalised cell viability (treatment time: 3 days) of 1.06 ± 0.023 and a normalised cell viability (treatment time: 6 days) of 1.06 ± 0.018.

Turning to `Cn1nnnc1SCC1=C(C(=O)O)N2C(=O)[C@@H](NC(=O)[C@H](O)c3ccccc3)[C@H]2SC1` [Cefamandole sodium salt], the normalised cell viability came out at 1.16 ± 0.13 (treatment time: 3 days) and 1 ± 0.015 (treatment time: 6 days).

`CCC[C@H](N[C@@H](C)C(=O)N1[C@H](C(=O)O)C[C@@H]2CCCC[C@@H]21)C(=O)OCC` [Perindopril]: the normalised cell viability came out at 1.16 ± 0.21 (treatment time: 3 days) and 1.07 ± 0.06 (treatment time: 6 days).

For `Nc1ccc(C(=O)NCC(=O)O)cc1` [Aminohippuric acid], the normalised cell viability is 1.11 ± 0.039 (treatment time: 3 days) and 1.05 ± 0.03 (treatment time: 6 days).

In the case of `COc1ccc(NS(=O)(=O)c2ccc(N)cc2)nn1` [Sulfamethoxypyridazine], the normalised cell viability runs as follows: (treatment time: 3 days) 0.927 ± 0.06; (treatment time: 6 days) 0.952 ± 0.092.

For the molecule `CC1(C)OC(=O)NC1=O` [Dimethadione], the normalised cell viability by setting is: (treatment time: 3 days) 1.039 ± 0.0092; (treatment time: 6 days) 0.843 ± 0.14.

In the case of `N=C(N)NCC1COC2(CCCCC2)O1` (stereo not given) [Guanadrel sulfate], the normalised cell viability by setting is: (treatment time: 3 days) 1.09 ± 0.023; (treatment time: 6 days) 1.09 ± 0.065.

For the molecule `Nc1ccc(S(=O)(=O)c2ccc(N)cc2)cc1` [Dapsone], the normalised cell viability runs as follows: (treatment time: 3 days) 1.12 ± 0.051; (treatment time: 6 days) 1.12 ± 0.042.

Regarding `OC[C@H]1O[C@@H](Oc2ccc(O)cc2)[C@H](O)[C@@H](O)[C@@H]1O` [Arbutin], the normalised cell viability by setting is: (treatment time: 3 days) 1.05 ± 0.026; (treatment time: 6 days) 1.03 ± 0.058.

`OCCN1CCN(CCCN2c3ccccc3Sc3ccc(Cl)cc32)CC1` [Perphenazine] registered a normalised cell viability (treatment time: 3 days) of 0.641 ± 0.087 and a normalised cell viability (treatment time: 6 days) of 0.74 ± 0.089.

As to `CN(C)CCc1c[nH]c2ccc(Cn3cncn3)cc12` [Rizatriptan benzoate], the normalised cell viability stood at 1.01 ± 0.052 (treatment time: 3 days) and 1.097 ± 0.0081 (treatment time: 6 days).

For the molecule `C=C1C[C@H]2[C@@H]3C=C(C)C4=CC(=O)CC[C@]4(C)[C@H]3CC[C@]2(C)[C@@]1(OC(C)=O)C(C)=O` [Melengestrol acetate], the normalised cell viability runs as follows: (treatment time: 3 days) 0.9761 ± 0.0077; (treatment time: 6 days) 0.964 ± 0.092.

For the molecule `CC(=O)Oc1cccc2c1C(=O)c1c(OC(C)=O)cc(C(=O)O)cc1C2=O` [Diacerein], the normalised cell viability (treatment time: 3 days) was found to be 0.698 ± 0.022 and the normalised cell viability (treatment time: 6 days) is 0.785 ± 0.036.
